# Assay results taken from the RNAGym collection of RNA variant scans (doi:10.1093/nar/gkz1192).
# Read counts are not given, so values of variants with three or more changes are uncertain.
# B1: CPEB3 Ribozyme (parent)
# chain: UAACAGGGGGCCACAGCAGAAGCGUUCACGUCGCAGCCCCUGUCAGAUUCUGGUGAAUCUGCGAAUUCUGCUGUAUAUCUC
# Variants of: B1
# Test: self-cleavage, relative activity (ratio to wild type); higher = more cleavage; in vitro, sequencing
# Procedure, shortened: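 After error-prone PCR and barcoding, CPEB3 ribozyme mutant libraries were transcribed with T7 RNA polymerase at 37°C for 5 hours, then given 15 min with DNase I before an EDTA stop, and they cleaved during both steps. Reverse transcription with template switching preceded Illumina sequencing. Relative activity divides a variant's cleaved/total read fraction by the unmutated ribozyme's. At least 5 reads were required per variant, and three batches were averaged.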
row,Variant,self-cleavage
1,C32U U48C A57G,0.24
2,C32A U60C C62G U72C C79U,0.17
3,U31C U43C U49A U54C U67A,0.12
4,C32U U43C C79A,0.24
5,C32U A64U U69C C81U,0.03
6,U31C U69C A77U,0.32
7,C32U A35G U72C,0.27
8,G33A U48C U54C,0.34
9,U31C G33A A45U U49C U51A U72C,0.14
10,G33U C39U A57G,0.18
11,U31C U48C A65G U67C U76A,0.12
12,G33U G42A U49A A57G,0.08
13,C32A G46U A47G A75G,0.04
14,U31G U41G A45G,0.42
15,G33A U58A U67A,0.39
16,U31G A56G U69A U72C,0.15
17,G33A A35U U51A U80C,0.22
18,U31C U60A U80C,0.49
19,U31C U66G C71U U72C,0.06
20,C32A A35G U48C U78C,0.17
21,C32U U41A G46U U54C U66C U76C A77G,0.04

row,Variant,self-cleavage
1,G33U A64U U67C,0.15
2,G33C U43C A56G A65U,0.39
3,G33A U67G U69C,0.15
4,U31C G36A A65G,0.16
5,U31C U60C U72A,0.13
6,C34A U60A A64U U76C,0.15
7,C32A A35U U43C A45C U72A,0.15
8,G33A C38U C62G,0.22
9,U31C U43A A45G U60C,1.02
10,C32U A47G A56U,0.15
11,U31G A57G U60C,0.15
12,G33C A64G U72A,0.13
13,G33A U67A U78C,0.29
14,C34G U41C U51C U72C U78C,0.08
15,G33A U49C U60A,0.3
16,G33U C59A U76G,0.05
17,C32U G46A A56G C62U U66C U80A,0.19
18,C32U U41C U43A U60G,0.13
19,C32U C40A A57G,0.12
20,U31G A45G U51C A64G A75G,0.14
21,U31G U67G A75G,0.34

row,Variant,self-cleavage
1,G33U U67G U78A U80A,0.13
2,U31C U41C A56G G63C U76A,0.69
3,U31C U60C C68U,0.48
4,U31G A35U A47G U74C,0.24
5,U31G G42A U49C U60C U80C,0.1
6,U31C U43A A64G U67C U69A,0.19
7,U31G U49C U78C,0.4
8,U31C U60A U69A,0.21
9,C32G U43C U69C U72C U76C U80A,0.05
10,U31C G46A U60C U72A A77G,0.05
11,C32G C62A U72C,0.1
12,C32U U54G G55U G61A A64G U78C,0.11
13,G33C U48C A64G U80C,0.05
14,C34A U43C A64G,0.13
15,C32U U54A G55A,0.23
16,C32A U43C U80C,0.27
17,C32U U49C U72A,0.26
18,U31C C40U U49C U72C,0.17
19,U31C U51G G52U,0.75
20,G33A A45G A47G U54C A75U U78C,0.06
21,U31C U51A A64G,0.33

row,Variant,self-cleavage
1,G33U A35U U60C U66C,0.16
2,U31C G42C U54C A56G A64G U78C,0.14
3,G33A A35U U49G U51C U72A,0.08
4,G33U A45U U49A A77G,0.12
5,G33U A57C U60C A65G U76A U80C,0.07
6,G33A A35C C37U U41C U60C A77G,0.12
7,G33A C62A A65U,0.31
8,G33U A47G U51A U66G,0.09
9,G33A A47U U80A,0.07
10,C32U A47G U72C U80C,0.2
11,G33A U51A A65G U72A U80C,0.06
12,C32A U41C A64G A75U,0.47
13,G33A U49A C68A,0.05
14,G33C U66A A77U,0.12
15,U31C G36A U60A,0.1
16,G33U U43C A56G U60C U74A,0.15
17,C32G U43A A47U A64U U72C,0.06
18,G33U U72C A75G,0.15
19,G33U U41A U49A U54C A56G U78C,0.12
20,U31C C40U A47G A56G A77G,0.16
